Experimental findings from PubChem BioAssay AID1963576 (National Center for Advancing Translational Sciences (NCATS), 2024) are described below.

Screen size: about 46,000 compounds; about 60 (0.1%) were called active. Inconclusive results (about 3%) are left out. The call rests on the fitted dose curve; in most records, active means well fitted inhibition curve with a large enough effect; inconclusive means small, poorly fitted or top-dose-only effect; inactive means no such curve, though single readings can be large or run the other way. Some of the results follow.

This assay in a line: Primary qHTS assay for Inhibitors of ovarian cancer metastasis using an organotypic tumor microenvironment (TME) model. Further: nearly all actives have a fitted effect of over 65% in size.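 On activity change, negative = inhibition: plate controls were DMSO wells for no effect and tomatine positive control wells for full effect.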 The following applies: SKOV3ip1-GFP adhesion/invasion on 3D omental model, fluorescence; series mostly up to 45.8 µM; activity change, negative = inhibition: at the top concentration. In a few lines:
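A 3D layer of primary human omental fibroblasts, mesothelial cells, fibronectin and collagen I, grown 48 hr, received SKOV3ip1-GFP cells in serum-free medium plus compounds at 0.36-46 umol/L. After 2 hr RT and 16 hr 37 C, fixed adherent GFP cells were counted; normalized to DMSO and tomatine.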
In general terms: Quantitative high-throughput screening tests each substance at several concentrations.
Turning to `CCOc1ccc(-n2c(SCC(=O)Nc3cccc(Cl)c3)nc3c(oc4ccccc43)c2=O)cc1`, the “activity change, negative = inhibition” value was inactive: 1.25%. With `CCN1C(=O)c2ccccc2Sc2ccc(NC(=O)COc3ccc(Cl)cc3)cc21`, the “activity change, negative = inhibition” value is inactive: 1.94%. As to `Cc1cccc(N2CCN(C(=O)c3cc4c(=O)oc5ccccc5c4s3)CC2C)c1` (configuration not stated), the result was inactive.

On to `CCc1ccc(CNC(=O)c2ccc3nc(SCc4ccc(F)cc4)n(C)c3c2)cc1`, for which the “activity change, negative = inhibition” value is inactive: -11.1%. Still for that read-out and setting: with `Cc1ccc(NC(=O)CSc2cc(=O)n(C)c3ccc(Cl)cc23)c(Br)c1` the figure was inactive: -3.38%; with `Cc1ccc(NS(=O)(=O)c2ccc3c(c2)NC(=O)C(C)C(=O)N3)cc1F` (configuration not stated), inactive: -10.5%. Regarding `COc1ccc(CNS(=O)(=O)c2cc3c(cc2C)n(C)c(=O)c(=O)n3C)cc1`, the “activity change, negative = inhibition” value is inactive: -0.101%.

Consider `COc1cccc(NC(=O)c2nn(-c3ccc(C)cc3)c(=O)n(C)c2=O)c1`, for which the “activity change, negative = inhibition” value is inactive: -15.5%. As to `CC(C)CN(CC(C)C)C(=O)C1CCCN(S(=O)(=O)c2ccc3c(c2)oc(=O)n3C)C1` (configuration not stated), the “activity change, negative = inhibition” value is inactive: 9.85%.

With `Cc1cccc(NC(=O)Cn2c(=O)n(CCC(C)C)c(=O)c3cccnc32)c1`, the “activity change, negative = inhibition” value was inactive: 16.9%. Consider `Cc1ccc(NC(=O)c2cnn(-c3ccc(C)c(C)c3)c2C2CCN(C(=O)OC(C)(C)C)CC2)c(C)c1`, for which the “activity change, negative = inhibition” value was inactive: 38%. As for `CCCCN(C)CCNC(=O)c1c(C)oc2ncnc(N3CCOCC3)c12`, the “activity change, negative = inhibition” value is inactive: -17.1%. With `CC(NC(=O)c1ccc2c(c1)N(Cc1cccc(F)c1)C(=O)c1ccccc1S2)c1ccccc1` (configuration not stated), the “activity change, negative = inhibition” value is inactive: 3.88%. For `O=C(CCSCCc1ccccn1)Nc1cc(F)ccc1F`, the “activity change, negative = inhibition” value was inactive: 2.98%.

Regarding `Cc1ccc(-n2c(=O)c3c(c4cc(C)ccc4n3C)n(CC(=O)Nc3c(C)cccc3C)c2=O)cc1`, the “activity change, negative = inhibition” value was inactive: -4.13%. The same measure, in the same setting: with `Cc1ccc(CNc2ccc(-c3nc(C(C)C)no3)cc2[N+](=O)[O-])cc1` the figure was inactive: 1.48%. For the compound `Cc1oc2ccc(O)c(CN3CCOCC3)c2c1C(=O)Nc1ccccc1`, the “activity change, negative = inhibition” value was inactive: -6.92%.

With `COc1cc(NC(=O)CN2C(=O)C(c3ccc(C)cc3)=NC23CCCCC3)cc(OC)c1`, the “activity change, negative = inhibition” value is inactive: -0.83%. Regarding `Cc1ccc(-n2nc(C(=O)N3CCN(c4cccc(C(F)(F)F)c4)CC3)c(=O)n(C)c2=O)cc1`, the “activity change, negative = inhibition” value is inactive: -0.902%.

Take `Cc1nc2c(C(=O)NCc3ccccc3)cnn2c(C)c1Cc1ccc(F)cc1`: the “activity change, negative = inhibition” value is inactive: 1.62%. As for `O=c1c2cnn(-c3ccc(Cl)cc3)c2ncn1Cc1ccc(Cl)cc1Cl`, the “activity change, negative = inhibition” value was inactive: -11%.

On to `Cc1ccc(Cn2c(=O)n(Cc3ccco3)c(=O)c3sc4ccccc4c32)cc1`, for which the “activity change, negative = inhibition” value was inactive: -14.8%.

Take `O=c1c2sc3ccccc3c2n(Cc2ccccc2F)c(=O)n1Cc1ccccc1`: the “activity change, negative = inhibition” value was inactive: -19.1%. Regarding `COc1ccc(Cl)cc1NC(=O)c1cc(C)nc2c1c(C)nn2-c1ccccc1`, the “activity change, negative = inhibition” value was inactive: 0.246%. Take `COc1cccc(CNC(=O)C2CCN(C(=O)N3CCOc4ccc(Cl)cc43)CC2)c1OC`: the “activity change, negative = inhibition” value is inactive: -1.43%. On the same count and under the same terms, the result for `CCC(CC)C(=O)Nc1cc(-c2cccc(C)c2)nn1-c1ccccc1` reads inactive: 11.6%. With `CC1=C(C(=O)Nc2ccccc2)C(c2cccnc2)n2nc(SCc3ccccc3F)nc2N1` (configuration not stated), the compound was classed as inactive. Consider `O=C(CC1N=C2c3ccccc3N=C(SCc3ccccc3F)N2C1=O)NCCc1ccccc1` (configuration not stated), for which the “activity change, negative = inhibition” value was inactive: 2.21%. In the case of `CCCCC(=O)Nc1cc(C)c(O)c(-c2nc3ncccc3o2)c1`, the result was inactive. Turning to `CC(=O)N1CCC2(CC1)OC(=O)C(C)=C2C(=O)Nc1cccc(Cl)c1C`, the “activity change, negative = inhibition” value was inactive: -26%.

As for `Cc1cccc(C(=O)Nc2cc3c(cc2N2CCCCC2)n(C)c(=O)c(=O)n3C)c1`, the “activity change, negative = inhibition” value was inactive: -12.2%. For `Cc1cccc(C)c1NC(=O)c1ccc2c(c1)N(Cc1cccc(Cl)c1)C(=O)c1ccccc1S2=O` (configuration not stated), the outcome was inactive. In the case of `CC(C)CC(=O)Nc1nnc(S(=O)(=O)N2CCCCCC2)s1`, the “activity change, negative = inhibition” value is inactive: 4.3%. In the case of `CCOC(=O)c1ccc(NC(=O)Cn2nc(SC)c(S(=O)(=O)c3ccc(Cl)cc3)c2N)cc1`, the “activity change, negative = inhibition” value was inactive: -54.5%. For `COc1ccc(-c2nc3cc(NC(=O)Cc4ccc(Cl)cc4)ccc3o2)cc1OC`, the “activity change, negative = inhibition” value was inactive: -2.71%.

Consider `COc1ccc(CCC(=O)NCc2ccc3c(c2)CCN3C(=O)c2ccc(F)cc2)cc1`, for which the result was inactive. As for `Cc1ccsc1CCN1C(=O)N(c2ccccc2)C(=O)C1CC(=O)Nc1ccc(F)cc1` (configuration not stated), the compound was called inactive. As for `Cc1ccc(Cl)cc1Nc1nc2ccccc2c2nncn12`, the “activity change, negative = inhibition” value was inactive: 1.07%. `CCOc1ccc(C(=O)Nc2cc(NC(=O)c3ccco3)ccc2OC)cc1Br`: the “activity change, negative = inhibition” value was inactive: -2.4%. As to `Cc1ccc(CCNC(=O)CCN2N=C(c3ccc(C)cc3)CCC2=O)cc1`, the “activity change, negative = inhibition” value was inactive: -1.45%. Take `COc1ccc(OC)c(-n2nnc3c(sc4nc(C)c(Br)c(C)c43)c2=O)c1`: the “activity change, negative = inhibition” value is inactive: -6.71%. Regarding `COc1ccccc1NC(=O)N1c2ccccc2Sc2ccccc21`, the “activity change, negative = inhibition” value is inactive: -7.13%.

Turning to `Cc1ccc(C(=O)N(Cc2sccc2C)C2CCS(=O)(=O)C2)cc1` (configuration not stated), the “activity change, negative = inhibition” value is inactive: -2.24%. On the same count and under the same terms, the result for `CCOc1cc(CC(=O)N[C@@H](CC(C)C)c2ccccc2N2CCCCC2)ccc1C(=O)O` reads inactive: -2.8%; that for `Cc1cc(C)c(Cn2c(C)c(CNCCCc3ccccc3)c(C(=O)O)c2C)c(C)c1`, inactive: -0.673%. For `CC(=O)c1sc2c(c1C)c(=O)n(-c1ccc(Cl)cc1)c(=O)n2Cc1ccc(Cl)cc1`, the compound was called inactive. On to `Cc1ccc(C)c(N2CCN(C(=O)CN3C(=O)COc4ccc(S(=O)(=O)N5CCCCCC5)cc43)CC2)c1`, for which the compound was called inactive.
